Experimental data from a collection of fitness landscapes (doi:10.1126/science.1257360).
The list shows a part of the results.

B1: PhoQ; a variant is named by its letters at X, in order, P23837 (parent)
chain: MKKLLRLFFPLSLRVRFLLATAAVVLVLSLAYGMVALIGYSVSFDKTTFRLLRGESNLFYTLAKWENNKLHVELPENIDKQSPTMTLIYDENGQLLWAQRDVPWLMKMIQPDWLKSNGFHEIEADVNDTSLLLSGDHSIQQQLQEVREDDDDAEMTHSVAVNVYPATSRMPKLTIVVVDTIPVELKSSYMVWSWFIYVLSANLLLVIPLLWVAAWWSLRPIEALAKEVRELEEHNRELLNPATTRELTSLVRNLNRLLKSERERYDKYRTTLTDLTHSLKTPLXXLQXXLRSLRSEKMSVSDAEPVMLEQISRISQQIGYYLHRASMRGGTLLSRELHPVAPLLDNLTSALNKVYQRKGVNISLDISPEISFVGEQNDFVEVMGNVLDNACKYCLEFVEISARQTDEHLYIVVEDDGPGIPLSKREVIFDRGQRVDTLRPGQGVGLAVAREITEQYEGKIVAGESMLGGARMEVIFGRQHSAPKDE

Variants of: B1
Experiment: enrichment ratio after two sorts for PhoP signalling (ratio (wild type AVST 3.29)); higher = more functional
Settings: with PhoP (E. coli)

Variant	enrichment ratio
EEAF	≤ 0.25
IVFE	≤ 0.25
MQMS	≤ 0.25
MPMC	≤ 0.25
IMDI	≤ 0.25
FWAP	≤ 0.25
FGGN	≤ 0.25
TNLK	≤ 0.25
AWFR	≤ 0.25
NKST	≤ 0.25
RGHA	≤ 0.25
ESED	≤ 0.25
MAPT	≤ 0.25
VVCY	≤ 0.25
PDPK	≤ 0.25
IGRC	≤ 0.25
DYDG	≤ 0.25
SLVG	2.81
QHMV	≤ 0.25
PKWP	≤ 0.25
WRWI	≤ 0.25
ARED	≤ 0.25
YQEH	≤ 0.25
DEFT	≤ 0.25

Variant	enrichment ratio
DLCH	≤ 0.25
KDGC	≤ 0.25
YVPV	≤ 0.25
QENH	70.4
MEFG	5.56
YQLD	≤ 0.25
DGYK	≤ 0.25
AIYT	0.296
ARTK	≤ 0.25
YTFD	≤ 0.25
PPYG	≤ 0.25
LTRH	≤ 0.25
GVMI	5.36
FHMM	≤ 0.25
MHFY	≤ 0.25
SVGN	3.41
NKLP	≤ 0.25
LLFR	≤ 0.25
YHQF	≤ 0.25
KIKN	≤ 0.25
IVLG	≤ 0.25
LGYL	6.08
LKIH	≤ 0.25
WMHH	≤ 0.25

Variant	enrichment ratio
PWPV	≤ 0.25
IFYR	≤ 0.25
APCY	≤ 0.25
WFAE	≤ 0.25
PRAD	≤ 0.25
LMDV	≤ 0.25
FGDM	≤ 0.25
DLFY	≤ 0.25
TSGS	8.89
KAWH	≤ 0.25
RNHM	≤ 0.25
SASH	12.2
LWTQ	≤ 0.25
NKGA	≤ 0.25
EMDL	≤ 0.25
LSVD	0.372
GCFH	≤ 0.25
EMHS	≤ 0.25
MNYR	≤ 0.25
EEKL	≤ 0.25
HTHD	≤ 0.25
KQCT	≤ 0.25
LPAK	≤ 0.25
WLLQ	≤ 0.25

Variant	enrichment ratio
SECI	28.3
VLWQ	≤ 0.25
YGDM	0.798
GHKT	≤ 0.25
DARR	≤ 0.25
NDAD	≤ 0.25
QDTK	≤ 0.25
TWYA	≤ 0.25
HDAT	≤ 0.25
QVKD	≤ 0.25
NPDS	≤ 0.25
SLLV	6.62
YPNV	≤ 0.25
GASE	≤ 0.25
NTIP	≤ 0.25
LWME	≤ 0.25
DYIH	≤ 0.25
KCCQ	≤ 0.25
SGIP	≤ 0.25
LPWE	≤ 0.25
REIR	≤ 0.25
SAMA	12.3
SGDI	≤ 0.25
LMCQ	≤ 0.25

Variant	enrichment ratio
NIGG	≤ 0.25
QHMY	≤ 0.25
EKFV	≤ 0.25
RFML	≤ 0.25
FVLM	8.14
DNRM	≤ 0.25
GWPL	≤ 0.25
PLHW	≤ 0.25
LNGS	≤ 0.25
SVFS	≤ 0.25
FARK	≤ 0.25
DKKM	≤ 0.25
RSWA	≤ 0.25
SVME	1.42
TNTG	5.72
PDTP	≤ 0.25
NFKQ	≤ 0.25
HPAN	≤ 0.25
ITIE	≤ 0.25
TVMG	1.95
RCFK	≤ 0.25
VCFR	≤ 0.25
DFLE	≤ 0.25
MWFY	≤ 0.25

Variant	enrichment ratio
RLGM	≤ 0.25
VYNP	≤ 0.25
HNKC	≤ 0.25
ELAV	≤ 0.25
DMRE	≤ 0.25
WAGD	≤ 0.25
YMAW	≤ 0.25
RRTS	≤ 0.25
LVCF	≤ 0.25
GYFE	≤ 0.25
YDTQ	≤ 0.25
YINH	≤ 0.25
VGNF	≤ 0.25
MAPR	≤ 0.25
FGSQ	≤ 0.25
YWEP	≤ 0.25
LWWW	≤ 0.25
YIPT	≤ 0.25
PCVT	≤ 0.25
DSQK	≤ 0.25
KNTY	≤ 0.25
TTNT	9.92
VTSE	≤ 0.25
VCAV	2.69

Variant	enrichment ratio
TWGL	≤ 0.25
DIDC	≤ 0.25
HVPQ	≤ 0.25
DCQY	≤ 0.25
AKSY	2.91
TEIW	≤ 0.25
EDWS	≤ 0.25
YSAL	≤ 0.25
GCRL	≤ 0.25
FDSV	≤ 0.25
NEGQ	≤ 0.25
RENR	≤ 0.25
LEKV	≤ 0.25
ETTT	≤ 0.25
VRLY	≤ 0.25
RGTH	≤ 0.25
AKQN	≤ 0.25
ARAM	≤ 0.25
RLLH	≤ 0.25
TDIY	≤ 0.25
AMQW	≤ 0.25
ITQD	≤ 0.25
GKWC	≤ 0.25
QECN	9.04

Variant	enrichment ratio
TEEG	9.76
TQRW	≤ 0.25
ETGP	≤ 0.25
QSRK	≤ 0.25
CFFS	≤ 0.25
NHTG	≤ 0.25
MIGS	9.52
ADHF	≤ 0.25
RHTL	≤ 0.25
GKPK	≤ 0.25
RSMC	≤ 0.25
FAFA	≤ 0.25
LWRY	≤ 0.25
HFCI	≤ 0.25
ASIN	12
CSVV	≤ 0.25
FFIN	≤ 0.25
MTDT	≤ 0.25
YETI	≤ 0.25
IPPQ	≤ 0.25
YQLK	≤ 0.25
AAAC	≤ 0.25
TDDF	≤ 0.25
LFMM	≤ 0.25

Variant	enrichment ratio
TMKV	≤ 0.25
PAFW	≤ 0.25
HCHA	≤ 0.25
ALDK	≤ 0.25
WIYR	≤ 0.25
QCWR	≤ 0.25
EYRT	≤ 0.25
FWPG	≤ 0.25
HFGH	≤ 0.25
QCHL	≤ 0.25
NAGY	≤ 0.25
FKHW	≤ 0.25
MNSR	≤ 0.25
DEDA	≤ 0.25
PTVY	≤ 0.25
LFDD	≤ 0.25
MPRS	≤ 0.25
SLHS	≤ 0.25
RQRN	≤ 0.25
PMPP	≤ 0.25
QIYW	≤ 0.25
SIRQ	≤ 0.25
NMQL	≤ 0.25
MFED	≤ 0.25

Variant	enrichment ratio
INYA	≤ 0.25
INLN	≤ 0.25
IHMV	≤ 0.25
KAYT	≤ 0.25
TYCL	6.72
PTRE	≤ 0.25
KIFR	≤ 0.25
EHFP	≤ 0.25
HQEH	0.706
HDAW	≤ 0.25
RPAR	≤ 0.25
GLVG	≤ 0.25
GLRG	≤ 0.25
KKTY	≤ 0.25
SESK	5.02
QCCT	≤ 0.25
RWKR	≤ 0.25
DSPC	≤ 0.25
MCRA	≤ 0.25
FKQP	≤ 0.25
NTYT	≤ 0.25
EYTP	≤ 0.25
YCHS	≤ 0.25
RNLC	≤ 0.25

Variant	enrichment ratio
HDWR	≤ 0.25
HEFD	≤ 0.25
VIIF	≤ 0.25
GLRP	≤ 0.25
VKTC	≤ 0.25
KHFS	≤ 0.25
HEHN	≤ 0.25
YSPR	≤ 0.25
HKSP	≤ 0.25
QPSK	≤ 0.25
GFQF	≤ 0.25
HEFN	≤ 0.25
VKTF	≤ 0.25
TLDS	≤ 0.25
IATS	≤ 0.25
VMGY	≤ 0.25
YMRF	≤ 0.25
QGDQ	≤ 0.25
YESE	≤ 0.25
DTID	≤ 0.25
CVLP	≤ 0.25
DEGP	≤ 0.25
FSFC	≤ 0.25
GLMS	≤ 0.25

Variant	enrichment ratio
CTVM	≤ 0.25
HNTE	≤ 0.25
NLYL	≤ 0.25
AEKY	≤ 0.25
HDDF	≤ 0.25
TVGM	10.4
IVCQ	≤ 0.25
WQFT	≤ 0.25
TVVS	≤ 0.25
WKRS	≤ 0.25
STVH	8.82
LNIS	≤ 0.25
DNNG	≤ 0.25
PNYI	≤ 0.25
MSAV	8.81
SAFS	0.465
LFHR	≤ 0.25
RVNS	≤ 0.25
MQQM	≤ 0.25
ARYH	≤ 0.25
CIQI	≤ 0.25
SWSS	≤ 0.25
GRFH	≤ 0.25
IGQS	≤ 0.25

Variant	enrichment ratio
HHNF	≤ 0.25
QYST	≤ 0.25
ADLV	8.2
NELN	≤ 0.25
AVHF	≤ 0.25
ADRI	≤ 0.25
NFIY	≤ 0.25
VAQT	≤ 0.25
LFTP	≤ 0.25
RNCM	≤ 0.25
AREP	≤ 0.25
KGYI	≤ 0.25
FYEE	≤ 0.25
TPDQ	≤ 0.25
LFAP	≤ 0.25
GTRQ	≤ 0.25
WKYF	≤ 0.25
NYNE	≤ 0.25
